Source: the supplement of paper PMC10126150
Values marked as one replicate rest on one cluster of the flow cell; about a third of the high ones do not repeat.

What follows are sequences tested on ATP (assay: switch fluorescence ratio, 500 uM ATP over buffer (Cy3 cluster intensity, sum of 5 cycles each) (fold (ratio)); higher = stronger signal-on switching upon ATP binding; sequences stand for … in TCGTCGGCAGCGTCAGATGTGTATAAGAGACAGTTTTTTTTTTTTTTTTTTTTTTTTT…TC). Settings: aptamer strand: ATP DNA aptamer (quencher-CACCTGGGGGAGTATTGCGGAGGAAGG + anchor), 100 nM annealed; ATP concentration: 500 uM; one replicate.
Procedure, shortened: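 Per cluster, summed Cy3 intensity from the target cycles was divided by that from the buffer cycles to give the fluorescence ratio, then averaged per switch-domain sequence. Clusters outside 100-1000 RFU were excluded. The Cy3-labelled switching-strand clusters, on a modified Illumina MiSeq flow-cell, were annealed to 100 nM quencher-labelled ATP aptamer and imaged in selection buffer, then after 15 min with 500 uM ATP at 22 °C, for five cycles with NaOH stripping and re-annealing between them.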
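Also: ATP exposure 15 min at 22 °C before imaging.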

Sequence	switch fluorescence ratio
CGCGTTCATG	1.02
CGCGTTGAGC	1.06
CGCGTTGCGT	0.973
CGCGTTGGAA	1
CGCGTTGTAC	1.54
CGCGTTGTCT	0.999
CGCTAAGGTA	0.996
CGCTAATAAA	1.09
CGCTACGTAA	2.09
CGCTAGTTGA	1.03
CGCTATCTAG	1.04
CGCTATTGAG	1.01
CGCTCAGGAG	1.26
CGCTCCGAAA	1.72
CGCTCCTAGG	1.36
CGCTCGAAAG	0.987
CGCTCTTCTC	1.07
CGCTCTTGTG	0.991
CGCTGCAGCG	1
CGCTGCGTGG	1.01
CGCTGGATGC	1.39
CGCTGGCCGC	0.974
CGCTGGGCGC	0.982
CGCTGGGTCG	1.03
CGCTGGGTTA	1.01
CGCTGGTCGA	1.09

Sequence	switch fluorescence ratio
CGCTTACAAT	1.06
CGCTTATG	1.1
CGCTTATGCC	1
CGCTTCCTAC	2.58
CGCTTCGATC	1.06
CGCTTGGTTA	0.978
CGCTTGTAAA	1.05
CGCTTTAAAT	1
CGCTTTAAGC	1.01
CGCTTTAGCT	0.983
CGCTTTGGCC	1.04
CGCTTTGGGA	1.04
CGCTTTTCAC	1.36
CGGAACGGGT	0.99
CGGAACTTAT	1.01
CGGAAGACTT	1.07
CGGAAGAGCG	0.981
CGGAAGAGTG	0.938
CGGAAGTTAA	0.979
CGGAATAGAG	0.98
CGGAATATTA	1.13
CGGAATTAGT	0.999
CGGAATTATT	0.972
CGGACATATT	1.03
CGGACCCCGT	1.08
CGGACCTACG	1.18

Sequence	switch fluorescence ratio
CGGACCTCTC	1.03
CGGACGACGA	1.07
CGGACGGTTT	0.955
CGGACGTGTA	1.07
CGGACTACTT	1.07
CGGACTCAAC	1.56
CGGAGAAAGT	1.01
CGGAGCGCTG	1.01
CGGAGCTCAT	2.11
CGGAGGACCT	1.05
CGGAGGACGC	1.01
CGGAGGCGCA	1
CGGAGGTCGA	1.01
CGGAGTCAGC	1.59
CGGAGTCGCA	1.02
CGGATAGACC	1.02
CGGATAGGCC	0.964
CGGATATACA	1.03
CGGATATCCC	0.972
CGGATATTCC	1.1
CGGATGAACA	1.01
CGGATGAAT	0.994
CGGATGGAAT	1.07
CGGATGTATG	1.01
CGGATTCCGT	0.982
CGGATTCGCT	0.982

Sequence	switch fluorescence ratio
CGGATTCGGT	1.01
CGGATTGCAT	1.05
CGGATTGGCC	0.989
CGGATTTGCA	0.999
CGGATTTGTA	0.97
CGGATTTTGT	0.992
CGGCAAAAAC	1.98
CGGCAATGCT	3.43
CGGCACCTGG	1.06
CGGCACTCTA	1.04
CGGCACTGAA	0.995
CGGCATAATT	1.02
CGGCATGTTT	1
CGGCCAGGTC	1.08
CGGCCCGCCG	0.99
CGGCCCGCGC	1.24
CGGCCTGGT	0.993
CGGCCTTGTA	0.994
CGGCGATCTA	1
CGGCGCTGAT	1.07
CGGCGCTTTA	1.15
CGGCGGGAAA	0.983
CGGCGGGGCT	0.997
CGGCGGGGTC	0.983
CGGCGTACT	1.04
CGGCGTAGCA	0.938

Sequence	switch fluorescence ratio
CGGCGTGTTA	1
CGGCTAGGTG	1.95
CGGCTATTAT	1
CGGCTCAATT	1.06
CGGCTCGAGT	1.01
CGGCTCGTAA	1.22
CGGCTGAAGT	0.996
CGGCTGAGGT	0.952
CGGCTTCTGG	1.04
CGGGAAAAG	1.02
CGGGAACCTG	1.03
CGGGAAGCTA	1.01
CGGGAATCTG	0.994
CGGGAATTC	1.03
CGGGAGCACA	1.35
CGGGAGCCAT	0.991
CGGGAGCCGT	1.12
CGGGATACA	1.07
CGGGATTACA	0.99
CGGGATTGTA	1.31
CGGGCAATTA	1.76
CGGGCAGACG	1.06
CGGGCATCAT	1.01
CGGGCCATGC	1.09
CGGGCCCGCA	1.02
CGGGCCCTG	0.999

Sequence	switch fluorescence ratio
CGGGCCGCT	1.03
CGGGCCTTAG	0.975
CGGGCGCTTG	0.998
CGGGCGGCGT	1.07
CGGGCGTACG	1.01
CGGGCTCCCT	1.03
CGGGCTGTAT	1.01
CGGGCTTCAC	1.01
CGGGCTTCCC	1.01
CGGGGAAAA	0.998
CGGGGAAGAG	1.01
CGGGGAGTCC	1.19
CGGGGCAATA	2.75
CGGGGTACTA	1.1
CGGGGTAGTA	0.972
CGGGGTATG	0.96
CGGGGTCACT	1.03
CGGGGTGAGC	0.954
CGGGGTGT	1.06
CGGGTACGCA	1.05
CGGGTATCTG	0.986
CGGGTCAATA	1.62
CGGGTCGTAT	1.01
